# The list shows a part of the results.
# B1: Pp2-A2 (Arabidopsis thaliana), Q07098 (protein)
# chain: MPSNGDLDRQIEQLMECKPLSEADVRTLCDQARAILVEEYNVQPVKCPVTVCGDIHGQFYDLIELFRIGGNAPDTNYLFMGDYVDRGYYSVETVSLLVALKVRYRDRLTILRGNHESRQITQVYGFYDECLRKYGNANVWKYFTDLFDYLPLTALIESQVFCLHGGLSPSLDTLDNIRSLDRIQEVPHEGPMCDLLWSDPDDRCGWGISPRGAGYTFGQDIAAQFNHNNGLSLISRAHQLVMEGFNWCQDKNVVTVFSAPNYCYRCGNMAAILEIGENMEQNFLQFDPAPRQVEPDTTRKTPDYFL
# Tests used:
# Test in all cases: glycan array binding signal (z-score within array); higher = stronger binding
# Conditions in all cases: glycan notation: IUPAC condensed, linker removed
# [1] = target: Fuc(a1-2)Gal
# Outline: (§1)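 The Consortium for Functional Glycomics database supplied 3228 glycan arrays, of which those lacking an available protein sequence were dropped. The binding signal, a within-array Z-score, was averaged across arrays of the same protein sequence and across linkers. Negative scores can be read as non-binding.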
# [2] = target: Fuc(a1-2)Gal(b1-3)GalNAc
# Outline: as §1
# [3] = target: Fuc(a1-2)Gal(b1-3)GalNAc(a1-3)[Fuc(a1-2)]Gal(b1-4)Glc
# Outline: as §1
# [4] = target: Fuc(a1-2)Gal(b1-3)GalNAc(a1-3)[Fuc(a1-2)]Gal(b1-4)GlcNAc
# Outline: as §1
# [5] = target: Fuc(a1-2)Gal(b1-3)GalNAc(b1-3)Gal
# Outline: as §1
# [6] = target: Fuc(a1-2)Gal(b1-3)GalNAc(b1-3)Gal(a1-4)Gal(b1-4)Glc
# Outline: as §1
# [7] = target: Fuc(a1-2)Gal(b1-3)GalNAc(b1-4)[Neu5Ac(a2-3)]Gal(b1-4)Glc
# Outline: as §1
# [8] = target: Fuc(a1-2)Gal(b1-3)GlcNAc
# Outline: as §1
# [9] = target: Fuc(a1-2)Gal(b1-3)GlcNAc(b1-2)Man(a1-3)[Fuc(a1-2)Gal(b1-3)GlcNAc(b1-2)Man(a1-6)]Man(b1-4)GlcNAc(b1-4)GlcNAc
# Outline: as §1
# [10] = target: Fuc(a1-2)Gal(b1-3)GlcNAc(b1-3)Gal(b1-4)Glc
# Outline: as §1
# [11] = target: Fuc(a1-2)Gal(b1-3)GlcNAc(b1-3)[Fuc(a1-3)[Gal(b1-4)]GlcNAc(b1-6)]Gal(b1-4)Glc
# Outline: as §1
# [12] = target: Fuc(a1-2)Gal(b1-3)[Fuc(a1-4)]GlcNAc
# Outline: as §1
# [13] = target: Fuc(a1-2)Gal(b1-3)[Fuc(a1-4)]GlcNAc(b1-2)Man(a1-3)[Fuc(a1-2)Gal(b1-3)[Fuc(a1-4)]GlcNAc(b1-2)Man(a1-6)]Man(b1-4)GlcNAc(b1-4)GlcNAc
# Outline: as §1
# [14] = target: Fuc(a1-2)Gal(b1-3)[Fuc(a1-4)]GlcNAc(b1-3)[Fuc(a1-3)[Gal(b1-4)]GlcNAc(b1-6)]Gal(b1-4)Glc
# Outline: as §1
# [15] = target: Fuc(a1-2)Gal(b1-3)[Fuc(a1-4)]GlcNAc(b1-3)[Gal(b1-4)GlcNAc(b1-6)]Gal(b1-4)Glc
# Outline: as §1
# [16] = target: Fuc(a1-2)Gal(b1-4)Glc
# Outline: as §1
# [17] = target: Fuc(a1-2)Gal(b1-4)Glc6S
# Outline: as §1
# [18] = target: Fuc(a1-2)Gal(b1-4)GlcNAc
# Outline: as §1
# [19] = target: Fuc(a1-2)Gal(b1-4)GlcNAc(b1-2)Man(a1-3)[Fuc(a1-2)Gal(b1-4)GlcNAc(b1-2)Man(a1-6)]Man(b1-4)GlcNAc(b1-4)GlcNAc
# Outline: as §1
# [20] = target: Fuc(a1-2)Gal(b1-4)GlcNAc(b1-3)Gal(b1-4)GlcNAc
# Outline: as §1
# [21] = target: Fuc(a1-2)Gal(b1-4)GlcNAc(b1-3)Gal(b1-4)GlcNAc(b1-3)Gal(b1-4)GlcNAc
# Outline: as §1
# [22] = target: Fuc(a1-2)Gal(b1-4)GlcNAc(b1-3)GalNAc
# Outline: as §1
# [23] = target: Fuc(a1-2)Gal(b1-4)GlcNAc6S
# Outline: as §1
# [24] = target: Fuc(a1-2)Gal(b1-4)[Fuc(a1-3)]GlcNAc
# Outline: as §1
# [25] = target: Fuc(a1-2)Gal(b1-4)[Fuc(a1-3)]GlcNAc(b1-2)Man(a1-3)[Fuc(a1-2)Gal(b1-4)[Fuc(a1-3)]GlcNAc(b1-2)Man(a1-6)]Man(b1-4)GlcNAc(b1-4)GlcNAc
# Outline: as §1
# [26] = target: Fuc(a1-2)Gal(b1-4)[Fuc(a1-3)]GlcNAc(b1-3)Gal(b1-4)[Fuc(a1-3)]GlcNAc
# Outline: as §1
# [27] = target: Fuc(a1-2)Gal(b1-4)[Fuc(a1-3)]GlcNAc(b1-3)Gal(b1-4)[Fuc(a1-3)]GlcNAc(b1-3)Gal(b1-4)[Fuc(a1-3)]GlcNAc
# Outline: as §1
# [28] = target: Fuc(a1-2)Gal6S(b1-4)Glc
# Outline: as §1
# [29] = target: Fuc(a1-2)Gal6S(b1-4)Glc6S
# Outline: as §1
# [30] = target: Fuc(a1-2)Gal6S(b1-4)GlcNAc
# Outline: as §1
# [31] = target: Fuc(a1-2)[Gal(a1-3)]Gal
# Outline: as §1
# [32] = target: Fuc(a1-2)[Gal(a1-3)]Gal(b1-3)GlcNAc
# Outline: as §1
# [33] = target: Fuc(a1-2)[Gal(a1-3)]Gal(b1-3)GlcNAc(b1-2)Man(a1-3)[Fuc(a1-2)[Gal(a1-3)]Gal(b1-3)GlcNAc(b1-2)Man(a1-6)]Man(b1-4)GlcNAc(b1-4)GlcNAc
# Outline: as §1
# [34] = target: Fuc(a1-2)[Gal(a1-3)]Gal(b1-4)Glc
# Outline: as §1
# [35] = target: Fuc(a1-2)[Gal(a1-3)]Gal(b1-4)GlcNAc
# Outline: as §1
# [36] = target: Fuc(a1-2)[Gal(a1-3)]Gal(b1-4)GlcNAc(b1-2)Man(a1-3)[Fuc(a1-2)[Gal(a1-3)]Gal(b1-4)GlcNAc(b1-2)Man(a1-6)]Man(b1-4)GlcNAc(b1-4)GlcNAc
# Outline: as §1
# [37] = target: Fuc(a1-2)[Gal(a1-3)]Gal(b1-4)[Fuc(a1-3)]GlcNAc
# Outline: as §1
# [38] = target: Fuc(a1-2)[Gal(a1-4)]Gal(b1-4)GlcNAc
# Outline: as §1
# [39] = target: Fuc(a1-2)[GalNAc(a1-3)]Gal
# Outline: as §1
# [40] = target: Fuc(a1-2)[GalNAc(a1-3)]Gal(b1-3)GalNAc(a1-3)[Fuc(a1-2)]Gal(b1-4)GlcNAc
# Outline: as §1
# [41] = target: Fuc(a1-2)[GalNAc(a1-3)]Gal(b1-3)GlcNAc
# Outline: as §1
# [42] = target: Fuc(a1-2)[GalNAc(a1-3)]Gal(b1-3)GlcNAc(b1-2)Man(a1-3)[Fuc(a1-2)[GalNAc(a1-3)]Gal(b1-3)GlcNAc(b1-2)Man(a1-6)]Man(b1-4)GlcNAc(b1-4)GlcNAc
# Outline: as §1
# [43] = target: Fuc(a1-2)[GalNAc(a1-3)]Gal(b1-4)Glc
# Outline: as §1
# [44] = target: Fuc(a1-2)[GalNAc(a1-3)]Gal(b1-4)GlcNAc
# Outline: as §1
# [45] = target: Fuc(a1-2)[GalNAc(a1-3)]Gal(b1-4)GlcNAc(b1-2)Man(a1-3)[Fuc(a1-2)[GalNAc(a1-3)]Gal(b1-4)GlcNAc(b1-2)Man(a1-6)]Man(b1-4)GlcNAc(b1-4)GlcNAc
# Outline: as §1
binder,measurement,setting,value
B1,glycan array binding signal (z-score),[1],-0.206
same,glycan array binding signal (z-score),[2],-0.504
same,glycan array binding signal (z-score),[3],-0.448
same,glycan array binding signal (z-score),[4],-0.349
same,glycan array binding signal (z-score),[5],0.104
same,glycan array binding signal (z-score),[6],-0.127
same,glycan array binding signal (z-score),[7],-0.479
same,glycan array binding signal (z-score),[8],-0.844
same,glycan array binding signal (z-score),[9],-0.444
same,glycan array binding signal (z-score),[10],-0.206
same,glycan array binding signal (z-score),[11],-0.539
same,glycan array binding signal (z-score),[12],-0.581
same,glycan array binding signal (z-score),[13],2.08
same,glycan array binding signal (z-score),[14],-0.327
same,glycan array binding signal (z-score),[15],-0.633
same,glycan array binding signal (z-score),[16],-0.175
same,glycan array binding signal (z-score),[17],0.143
same,glycan array binding signal (z-score),[18],-0.593
same,glycan array binding signal (z-score),[19],-0.503
same,glycan array binding signal (z-score),[20],-0.543
same,glycan array binding signal (z-score),[21],-0.448
same,glycan array binding signal (z-score),[22],-0.628
same,glycan array binding signal (z-score),[23],0.385
same,glycan array binding signal (z-score),[24],-0.231
same,glycan array binding signal (z-score),[25],1.48
same,glycan array binding signal (z-score),[26],-0.337
same,glycan array binding signal (z-score),[27],-0.4
same,glycan array binding signal (z-score),[28],-0.157
same,glycan array binding signal (z-score),[29],0.903
same,glycan array binding signal (z-score),[30],-0.734
same,glycan array binding signal (z-score),[31],-0.273
same,glycan array binding signal (z-score),[32],-0.468
same,glycan array binding signal (z-score),[33],-0.613
same,glycan array binding signal (z-score),[34],-0.444
same,glycan array binding signal (z-score),[35],-0.404
same,glycan array binding signal (z-score),[36],-0.113
same,glycan array binding signal (z-score),[37],-0.029
same,glycan array binding signal (z-score),[38],-0.244
same,glycan array binding signal (z-score),[39],-0.337
same,glycan array binding signal (z-score),[40],0.21
same,glycan array binding signal (z-score),[41],-0.343
same,glycan array binding signal (z-score),[42],-0.54
same,glycan array binding signal (z-score),[43],-0.32
same,glycan array binding signal (z-score),[44],-0.242
same,glycan array binding signal (z-score),[45],-0.296

# — the supplement of paper PMC8728848
